Changes are numbered by the printed parent chain.

The record followed here is patent US20260166085A1 (BEAM THERAPEUTICS, published 2026).

One test deals with T1, Cyno CD117 (cynomolgus, UniProt F6V858 26-520 (rhesus entry)).
T1 construct: also called cynomolgus CD117
The experiment in a line: KD, method not stated (Table 8B).

Test [1] concerns the target T2, Wild type CD117 purified protein (human, UniProt P10721 fragment, limits assumed).
T2 construct: Protein used in BLI/kinetics and cryo-EM; also called wt CD117; Wt CD117
Nature of the test: KD, method not stated (Table 8B).

For test [2], the target named is T2, Wild type CD117 purified protein. The experiment in a line: summary Table 75 (repeats Table 71).
T2 sequence (P10721 26-520 limits assumed): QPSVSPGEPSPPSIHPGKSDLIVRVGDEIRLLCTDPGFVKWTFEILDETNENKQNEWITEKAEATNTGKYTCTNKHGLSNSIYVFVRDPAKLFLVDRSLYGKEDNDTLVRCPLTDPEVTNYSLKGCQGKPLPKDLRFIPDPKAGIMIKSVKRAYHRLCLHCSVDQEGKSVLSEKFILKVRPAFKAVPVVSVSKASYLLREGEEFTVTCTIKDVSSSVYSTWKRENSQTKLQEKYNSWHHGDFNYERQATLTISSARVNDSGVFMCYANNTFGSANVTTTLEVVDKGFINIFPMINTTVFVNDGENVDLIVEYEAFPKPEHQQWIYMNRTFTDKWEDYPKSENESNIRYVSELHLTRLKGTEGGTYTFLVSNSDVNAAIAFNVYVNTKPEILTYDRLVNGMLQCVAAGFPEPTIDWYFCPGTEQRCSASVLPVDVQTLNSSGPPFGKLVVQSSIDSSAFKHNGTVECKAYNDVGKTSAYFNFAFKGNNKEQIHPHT
Test [3] shares this target. Nature of the test: monovalent KD, CD117 titrated (FIGS. 73A-73E).
In test [4] the target is T3, Wild type CD117 expressed on cells (M07e cells, unedited human CD34+ HSPCs) (human, UniProt P10721 26-976).
T3 construct: Endogenous receptor on cells; also called wtCD117; WT CD117
Nature of the test: summary Table 75, EC50 on M07e cells.

In test [5] the target is T3, Wild type CD117 expressed on cells …. Nature of the test: flow cytometry (MFI) on M07e cells (FIG. 59).
Test [6] has as its target T2, Wild type CD117 purified protein. Nature of the test: binding kinetics, antibody 333.3 to 5.2 nM (FIGS. 58A-58D).
The target is the same in test [7]. Nature of the test: binding kinetics to wild-type CD117 (FIG. 54).
For test [8], the target named is T3, Wild type CD117 expressed on cells …. The experiment in a line: cell-based or functional assay.
Test [9] has the same target. The experiment in a line: cell-based or functional assay. This is another data set of the same source.
The target is the same in test [10]. The experiment in a line: flow cytometry on M07e cells expressing wild type CD117, 1 h (FIG. 87A). In general terms: In flow cytometry, cells or beads pass a laser one at a time.
In test [11] the target is T2, Wild type CD117 purified protein. Nature of the test: binding kinetics, FIGS. 45A-45K.
Test [12] deals with wild type CD117 extracellular domain (ECD) protein (human, UniProt P10721 fragment). Nature of the test: BLI (Octet), antibody on AHC biosensor, CD117 ECD titrated 1:2 from 345 nM. Here is the method: The AHC biosensor data was analyzed using Octet Analysis Studio software.
Background: BLI is a label-free optical method that tracks binding on a fibre tip over time.

Test [13] has as its target T4, CC128 variant of CD117 (Y259C + N260D) purified protein (human, UniProt P10721 fragment, limits assumed).
T4 construct: also called CC128-edited CD117 as purified protein
Nature of the test: BLI (Octet), CC128 variant on SA biosensor, antibody titrated 1:2 from 2.5 µM. Here is the method:
Binding to the CC128 variant of CD117 was determined using streptavidin (SA) biosensors, which were allowed to bind the CC128 variant from a 5 μg/ml solution thereof. The SA biosensors were then titrated with monoclonal antibodies starting at 2.5 μM and using titration increments of 1:2. Data was analyzed using the Octet Analysis Studio Software.

Chain of Cyno CD117 (chain, as listed by the source): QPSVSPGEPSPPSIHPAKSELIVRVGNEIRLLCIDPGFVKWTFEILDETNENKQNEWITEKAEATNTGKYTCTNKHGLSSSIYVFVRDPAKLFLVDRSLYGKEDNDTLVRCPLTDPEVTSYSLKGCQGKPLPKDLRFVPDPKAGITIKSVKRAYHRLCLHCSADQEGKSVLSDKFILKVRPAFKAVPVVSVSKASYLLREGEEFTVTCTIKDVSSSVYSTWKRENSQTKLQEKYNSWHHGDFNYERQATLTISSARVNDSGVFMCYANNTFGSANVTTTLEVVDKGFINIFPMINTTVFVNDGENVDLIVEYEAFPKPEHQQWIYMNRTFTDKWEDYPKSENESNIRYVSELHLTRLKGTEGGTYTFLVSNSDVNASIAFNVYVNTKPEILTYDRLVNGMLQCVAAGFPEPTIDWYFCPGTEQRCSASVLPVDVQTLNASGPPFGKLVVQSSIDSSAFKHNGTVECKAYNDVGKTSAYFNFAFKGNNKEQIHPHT

B1: ABTx052 (antibody, human IgG1, kappa)
heavy: QVQLVQSGAAVKKPGESLKISCKGSGYRFTSYWIGWVRQMPGKGLEWMGIIYPGDSDTRYSPSFQGQVTISAGKSISTAYLQWSSLKASDTAMYYCARHGRGYNGYEGAFDIWGQGTMVTVSS[human IgG1 constant region not written out]
light: AIQLTQSPSSLSASVGDRVTITCRASQGISSALAWYQQKPGKAPKLLIYDASSLESGVPSRFSGSGSGTDFTLTISSLQPEDFATYYCQQFNSYPLTFGGGTKVEIKRTVAAPSVFIFPPSDEQLKSGTASVVCLLNNFYPREAKVQWKVDNALQSGNSQESVTEQDSKDSTYSLSSTLTLSKADYEKHKVYACEVTHQGLSSPVTKSFNRGEC
notes: human IgG1; also called mAb-7; mAB-7
What is called Kd is the concentration at which binding is half-saturated. Usually koff stands for the first-order rate constant of dissociation. High values mean fast dissociation, low ones slow dissociation. Broadly, the kon is the second-order rate constant of association. The term EC50 denotes the concentration needed to bring the measured effect to its halfway point. Low values mean higher potency in that assay, high ones lower potency in that assay. With B1, the dissociation constant (Kd) in the test with Cyno CD117 is less than 0.001 nM; in test [1], less than 0.001 nM; in [2], 8.05 nM; in test [3], 8.05 nM. Also, the koff turned out to be 0.00247 s⁻¹ in test [3], 0.00165 s⁻¹ in [6] and 0.00118 s⁻¹ in test [7]. Further, the on-rate constant (kon) turned out to be 307000 M⁻¹ s⁻¹ in test [3], 228000 M⁻¹ s⁻¹ in test [6] and 127000 M⁻¹ s⁻¹ in test [7]. Besides, the EC50 was 0.17 nM in [4] and 0.126 nM in [5].

B2: ABTx271 (antibody, human IgG1, kappa)
heavy: B1 heavy with N104D, G105A, E107D
light: B1 light with F91T
In the case of B2, a half-maximal effect in [5] (EC50) was put at 0.0836 nM. Also, the “IC50 [M], viability of unedited HSCs with 100 ng/mL SCF, 5-7 days” value in [8] is 1.64e-06 M. In addition, in test [6], the Kd stood at 9.53 nM, the koff amounted to 0.00234 s⁻¹ and the association rate constant (kon) stood at 246000 M⁻¹ s⁻¹.

B3: ABTx135 (antibody, human IgG1, kappa, L234A L235A)
heavy: QVQLVQSGAAVKKPGESLKISCKGSGYRFTSYWIGWVRQMPGKGLEWMGIIYPGDSDTRYSPSFQGQVTISAGKSISTAYLQWSSLKASDTAMYYCARHGRGYNGYEGAFDIWGQGTMVTVSSASTKGPSVFPLAPSSKSTSGGTAALGCLVKDYFPEPVTVSWNSGALTSGVHTFPAVLQSSGLYSLSSVVTVPSSSLGTQTYICNVNHKPSNTKVDKKV[human IgG1 Fc with L234A L235A D265A (EU numbers) not written out]
light: B1 light
notes: ABTx052 with LALADA in the Fc; also called ABTx052_LALADA; mAb-7 with an LALADA Fc domain alteration
On to B3, for which the “IC50 (M), depletion of human CD34+ HSPCs” value in [9] worked out at 1.36e-06 M. Besides, in test [10], the EC50 was 0.154 nM. Further, in [11], the affinity, expressed as Kd, was 0.26 nM; the koff is 0.000176 s⁻¹; the kon is 677000 M⁻¹ s⁻¹. The “IC50 [M], viability of unedited HSCs with 100 ng/mL SCF, 5-7 days” value in test [8] was 5.34e-07 M. Further, in test [12], the Kd turned out to be 5.6 nM, the koff worked out at 0.00911 s⁻¹ and the kon turned out to be 1.63e+06 M⁻¹ s⁻¹. Also, the Kd in test [13] was determined as 26.6 nM.

B4: ABTx309 (antibody, human IgG1, kappa, L234A L235A)
heavy: B3 heavy with N104D, G105A, E107D
light: B1 light with F91T
notes: Fc with LALADA
Turning to B4, a half-maximal effect in [10] (EC50) was put at 0.168 nM. In test [12], this molecule registered a Kd of 5.52 nM, a koff of 0.00814 s⁻¹ and an on-rate constant (kon) of 1.47e+06 M⁻¹ s⁻¹. Moreover, the Kd in test [13] amounted to 4.67 nM.
